Data reported in the antibiotic and cytotoxicity screens of Wong et al. (2023).
The list shows a part of the results.

test system: HSkMC (human skeletal muscle cells); assay: cytotoxicity call (relative viability < 0.9); conditions: 10 µM

With `C[C@@H]1CN([C@H](C)CO)C(=O)CCCn2nncc2CO[C@@H]1CN(C)C(=O)Nc1ccc2c(c1)OCO2` as the compound, how does the cytotoxicity call read?
Its cytotoxicity call is “inactive”.

How did the cytotoxicity call turn out when `NCc1nc2c([nH]1)CCCC2` was run?
Its cytotoxicity call is “inactive”.

For `C[C@@H]1CCCCO[C@@H](CN(C)S(C)(=O)=O)[C@@H](C)CN([C@@H](C)CO)C(=O)c2cc(NS(=O)(=O)c3ccc(F)cc3)ccc2O1`, which cytotoxicity call is on record?
The cytotoxicity call was “inactive”.

For `COc1ccc(S(=O)(=O)N(C)C[C@H]2Oc3ncc(C#CC4(O)CCCC4)cc3C(=O)N([C@H](C)CO)C[C@H]2C)cc1`, which cytotoxicity call is on record?
Its cytotoxicity call is “inactive”.

Which cytotoxicity call does the source give for `CN1CCN(C(=O)C[C@@H]2CC[C@H]3[C@@H](COC[C@@H](O)CN3C(=O)Nc3ccc4c(c3)OCO4)O2)CC1` here?
Its cytotoxicity call is “inactive”.

With `C[C@@H]1CN([C@H](C)CO)C(=O)c2cc(NS(C)(=O)=O)ccc2O[C@H]1CN(C)S(=O)(=O)c1ccc(F)cc1` as the compound, how does the cytotoxicity call read?
Its cytotoxicity call is “inactive”.

How did the cytotoxicity call turn out when `C[C@H]1CN([C@@H](C)CO)C(=O)c2cccc(NC(=O)Nc3ccc(C(F)(F)F)cc3)c2O[C@H]1CN(C)S(C)(=O)=O` was run?
Its cytotoxicity call is “inactive”.

`COc1ccc(NC(=O)N(C)C[C@H]2Oc3c(NS(=O)(=O)c4c(C)noc4C)cccc3C(=O)N([C@H](C)CO)C[C@H]2C)cc1` was tested. Which cytotoxicity call did it give?
The cytotoxicity call was “inactive”.

With `COC(=O)C1=CO[C@@H](O[C@H]2O[C@@H](CO)[C@@H](O)[C@@H](O)[C@@H]2O)[C@@H]2C(CO)=C[C@H](O)[C@H]12` as the compound, how does the cytotoxicity call read?
The cytotoxicity call was “inactive”.

Which cytotoxicity call does the source give for `C[C@H]1CCCCO[C@@H](CN(C)C(=O)CCC(F)(F)F)[C@@H](C)CN([C@@H](C)CO)C(=O)c2cc(NS(=O)(=O)c3ccc(F)cc3)ccc2O1` here?
The cytotoxicity call was “inactive”.

Which cytotoxicity call does the source give for `C[C@H](CO)N1C[C@H](C)[C@@H](CN(C)C(=O)Nc2cccc3ccccc23)Oc2ccc(NC(=O)Cc3cn(C)c4ccccc34)cc2C1=O` here?
The cytotoxicity call was “inactive”.

How did the cytotoxicity call turn out when `O=C(Nc1cccc2cccnc12)[C@@H]1[C@H](c2ccc(C(F)(F)F)cc2)CC(=O)N1C(=O)OCc1ccccc1` was run?
Its cytotoxicity call is “inactive”.

Which cytotoxicity call does the source give for `CCO[C@H]1OC(C(=O)N2CCN(Cc3ccccc3)CC2)=C[C@@H](C)[C@@H]1CCCOC(=O)NCCCCCC(=O)NO` here?
The cytotoxicity call was “inactive”.

`COCC(=O)N1CC[C@]2(CC1)CN([C@@H](CO)c1c2c2ccc(cc2n1C)OC)C(=O)Cc1ccccc1` was tested. Which cytotoxicity call did it give?
The cytotoxicity call was “inactive”.

How did the cytotoxicity call turn out when `COCCOC(=O)N1C(=O)[C@@]2(c3cc(C#Cc4ccc(OC)cc4)ccc31)[C@H](C(=O)N1CCN(c3ncccn3)CC1)[C@H]1C(=O)O[C@H](c3ccccc3)[C@H](c3ccccc3)N1[C@@H]2c1ccc(OCCO)cc1` was run?
Its cytotoxicity call is “inactive”.

For `C[C@H](CO)N1C[C@H](C)[C@@H](CN(C)Cc2ccc(C(F)(F)F)cc2)OCCCC[C@H](C)Oc2ccc(NC(=O)Nc3ccc4c(c3)OCO4)cc2C1=O`, which cytotoxicity call is on record?
Its cytotoxicity call is “inactive”.

`C[C@@H]1COC(=O)[C@H](CC(=O)OC(C)(C)C)CC=CC[C@@H](CC(=O)N[C@@H](CO)Cc2ccccc2)C(=O)N1` was tested. Which cytotoxicity call did it give?
The cytotoxicity call was “inactive”.

`O=C(C[C@H]1CC[C@H]2[C@@H](COC[C@@H](O)CN2S(=O)(=O)c2ccccc2)O1)N[C@H]1CCN(Cc2ccccc2)C1` was tested. Which cytotoxicity call did it give?
The cytotoxicity call was “inactive”.

For `COc1ccc2c3c(n(c2c1)C)[C@H](CO)N(C[C@]13CCN(CC1)C(=O)CN(C)C)S(=O)(=O)C`, which cytotoxicity call is on record?
The cytotoxicity call was “inactive”.

For `COc1ccccc1C#Cc1ccc2c(c1)O[C@@H](CN(C)C(C)=O)[C@H](C)CN([C@H](C)CO)S2(=O)=O`, which cytotoxicity call is on record?
The cytotoxicity call was “inactive”.

How did the cytotoxicity call turn out when `CCOC(=O)c1ccc(NC(=S)N[C@@H](NC(=O)c2ccc(Br)cc2)C(Cl)(Cl)Cl)cc1` was run?
The cytotoxicity call was “active”.

For `COc1ccc(S(=O)(=O)N2C[C@@H](O)COC[C@@H]3O[C@H](CC(=O)N[C@@H]4CCN(Cc5ccccc5)C4)CC[C@H]32)cc1`, which cytotoxicity call is on record?
The cytotoxicity call was “inactive”.

With `CC1(C)SC2C(N3C(=O)C(c4ccccc4)NC3(C)C)C(=O)N2C1C(=O)[O-].[K+]` (stereo not drawn) as the compound, how does the cytotoxicity call read?
Its cytotoxicity call is “inactive”.

Which cytotoxicity call does the source give for `C[C@H](CO)N1C[C@H](C)[C@H](CN(C)C(=O)Nc2ccc(F)cc2)OCCCC[C@H](C)Oc2ccc(NC(=O)C3CCOCC3)cc2C1=O` here?
Its cytotoxicity call is “inactive”.

For `C=CC[C@H](CC(=O)NCCO)C(=O)N[C@H](COC(=O)[C@H](CC=C)CC(=O)OC(C)(C)C)c1ccccc1`, which cytotoxicity call is on record?
Its cytotoxicity call is “inactive”.

Which cytotoxicity call does the source give for `C[C@H](CO)N1C[C@H](C)[C@@H](CN(C)Cc2ccc(C(=O)O)cc2)Oc2ccc(NC(=O)C3CC3)cc2C1=O` here?
The cytotoxicity call was “inactive”.

Which cytotoxicity call does the source give for `Cc1noc(C)c1S(=O)(=O)Nc1cccc2c1O[C@H](CN(C)C(=O)NC(C)C)[C@H](C)CN([C@@H](C)CO)C2=O` here?
The cytotoxicity call was “inactive”.

For `C[C@H]1CN([C@@H](C)CO)C(=O)c2cccc(NS(=O)(=O)c3cccs3)c2O[C@@H]1CN(C)Cc1ccc(Cl)c(Cl)c1`, which cytotoxicity call is on record?
The cytotoxicity call was “inactive”.
